# Measurements as given in a collection of fitness landscapes (doi:10.1126/science.1257360).
# The list shows a part of the results.
# B1: PhoQ; a variant is named by its letters at X, in order, P23837 (parent)
# chain: MKKLLRLFFPLSLRVRFLLATAAVVLVLSLAYGMVALIGYSVSFDKTTFRLLRGESNLFYTLAKWENNKLHVELPENIDKQSPTMTLIYDENGQLLWAQRDVPWLMKMIQPDWLKSNGFHEIEADVNDTSLLLSGDHSIQQQLQEVREDDDDAEMTHSVAVNVYPATSRMPKLTIVVVDTIPVELKSSYMVWSWFIYVLSANLLLVIPLLWVAAWWSLRPIEALAKEVRELEEHNRELLNPATTRELTSLVRNLNRLLKSERERYDKYRTTLTDLTHSLKTPLXXLQXXLRSLRSEKMSVSDAEPVMLEQISRISQQIGYYLHRASMRGGTLLSRELHPVAPLLDNLTSALNKVYQRKGVNISLDISPEISFVGEQNDFVEVMGNVLDNACKYCLEFVEISARQTDEHLYIVVEDDGPGIPLSKREVIFDRGQRVDTLRPGQGVGLAVAREITEQYEGKIVAGESMLGGARMEVIFGRQHSAPKDE
# Variants of: B1
# Test: enrichment ratio after two sorts for PhoP signalling (ratio (wild type AVST 3.29)); higher = more functional
# Conditions: with PhoP (E. coli)
row,Variant,enrichment ratio
1,LGGA,≤ 0.25
2,FIPS,≤ 0.25
3,PLPA,1.07
4,MKFW,≤ 0.25
5,NLEQ,≤ 0.25
6,KKVN,≤ 0.25
7,LPFI,≤ 0.25
8,RCWG,≤ 0.25
9,TYTD,≤ 0.25
10,LSTD,≤ 0.25
11,YNDI,≤ 0.25
12,SPTK,≤ 0.25
13,HWFA,≤ 0.25
14,GQLT,3.79
15,QGNS,≤ 0.25
16,PAMQ,≤ 0.25
17,GIFE,≤ 0.25
18,SMWF,≤ 0.25
19,EFNK,≤ 0.25
20,NWGR,≤ 0.25
21,VKLY,≤ 0.25
22,GLFR,≤ 0.25
23,YMSL,≤ 0.25
24,WAAM,≤ 0.25
25,EHWQ,≤ 0.25

row,Variant,enrichment ratio
1,YTDV,≤ 0.25
2,RTRV,≤ 0.25
3,ELDS,≤ 0.25
4,AISK,6.13
5,PTDY,≤ 0.25
6,TQWF,7.56
7,KRCA,≤ 0.25
8,KIKG,≤ 0.25
9,AMSN,9.34
10,YCWP,≤ 0.25
11,AHDG,≤ 0.25
12,HQIY,≤ 0.25
13,VSDH,≤ 0.25
14,ERIL,≤ 0.25
15,MLYN,1.73
16,FPEP,≤ 0.25
17,TQVG,12.2
18,QNTK,≤ 0.25
19,NMNH,≤ 0.25
20,AELT,6.58
21,SAHQ,≤ 0.25
22,MEPY,≤ 0.25
23,GPDE,≤ 0.25
24,NAMS,≤ 0.25
25,TNCD,≤ 0.25

row,Variant,enrichment ratio
1,GCCF,4.28
2,NETC,≤ 0.25
3,YKQH,≤ 0.25
4,PYAC,≤ 0.25
5,QHEC,≤ 0.25
6,LRNR,≤ 0.25
7,LHPK,≤ 0.25
8,GYIM,0.349
9,FCKD,≤ 0.25
10,WMQG,≤ 0.25
11,TQTF,0.372
12,MPWS,≤ 0.25
13,VPGD,≤ 0.25
14,VKFC,≤ 0.25
15,PCFA,≤ 0.25
16,MFDD,≤ 0.25
17,RMLV,≤ 0.25
18,ATKH,≤ 0.25
19,EHFI,≤ 0.25
20,HKTE,≤ 0.25
21,IHDP,≤ 0.25
22,DHIW,≤ 0.25
23,DPMN,≤ 0.25
24,FGPA,≤ 0.25
25,ASSC,5.91

row,Variant,enrichment ratio
1,VFSG,≤ 0.25
2,RRMN,≤ 0.25
3,KDVI,≤ 0.25
4,DVKN,≤ 0.25
5,KSDK,≤ 0.25
6,VQWT,≤ 0.25
7,VIYF,≤ 0.25
8,KQQT,≤ 0.25
9,KFTL,≤ 0.25
10,PMKP,≤ 0.25
11,APCI,≤ 0.25
12,DVNK,≤ 0.25
13,NSMN,≤ 0.25
14,YSQG,≤ 0.25
15,DDLS,≤ 0.25
16,GECI,7.86
17,EVGM,≤ 0.25
18,TSKC,≤ 0.25
19,TKIN,≤ 0.25
20,YVMI,≤ 0.25
21,VLNQ,≤ 0.25
22,LTAK,≤ 0.25
23,GCVR,≤ 0.25
24,NRPN,≤ 0.25
25,LRPV,≤ 0.25

row,Variant,enrichment ratio
1,KCHN,3.86
2,GNTG,≤ 0.25
3,GLSF,4.58
4,TPCR,≤ 0.25
5,HLYG,≤ 0.25
6,VSFQ,≤ 0.25
7,EVMV,≤ 0.25
8,HRDT,≤ 0.25
9,GCMH,5.77
10,VRFV,≤ 0.25
11,MQYR,≤ 0.25
12,HNMG,≤ 0.25
13,QYSE,≤ 0.25
14,NKDM,≤ 0.25
15,AQDR,≤ 0.25
16,STYD,≤ 0.25
17,KGFT,≤ 0.25
18,QHGW,≤ 0.25
19,LMIL,≤ 0.25
20,TADN,≤ 0.25
21,PQDQ,≤ 0.25
22,RKKA,≤ 0.25
23,VFFE,≤ 0.25
24,MKSM,≤ 0.25
25,ILPF,≤ 0.25

row,Variant,enrichment ratio
1,WHVF,≤ 0.25
2,LEDG,≤ 0.25
3,TDEP,≤ 0.25
4,YRWP,≤ 0.25
5,WDVA,≤ 0.25
6,SKDH,≤ 0.25
7,LYCG,≤ 0.25
8,QSYA,1.81
9,RCSD,≤ 0.25
10,IMAM,≤ 0.25
11,KMCH,≤ 0.25
12,KVPP,≤ 0.25
13,KLYY,≤ 0.25
14,LRYP,≤ 0.25
15,KLTH,≤ 0.25
16,QLAP,≤ 0.25
17,WHIS,≤ 0.25
18,DIQK,≤ 0.25
19,YAPQ,≤ 0.25
20,ILPM,≤ 0.25
21,VSQW,≤ 0.25
22,RDKN,≤ 0.25
23,IIME,≤ 0.25
24,FSPP,≤ 0.25
25,NVLM,≤ 0.25

row,Variant,enrichment ratio
1,TCHY,5.9
2,MTQA,≤ 0.25
3,WPPW,≤ 0.25
4,IMMT,≤ 0.25
5,PQIA,≤ 0.25
6,EYTN,≤ 0.25
7,YDDP,≤ 0.25
8,SVEY,≤ 0.25
9,IAWN,6.67
10,PATV,≤ 0.25
11,STKN,≤ 0.25
12,AGTF,3.25
13,DRAA,≤ 0.25
14,ELIG,≤ 0.25
15,VESN,≤ 0.25
16,HNCQ,≤ 0.25
17,WREY,≤ 0.25
18,FLSV,≤ 0.25
19,LGTI,≤ 0.25
20,KIAD,≤ 0.25
21,SHGT,≤ 0.25
22,DGNA,≤ 0.25
23,IAQA,≤ 0.25
24,YLNR,≤ 0.25
25,SGPE,≤ 0.25

row,Variant,enrichment ratio
1,IDFE,≤ 0.25
2,EVFF,≤ 0.25
3,QHLY,≤ 0.25
4,YIDD,≤ 0.25
5,SHMT,≤ 0.25
6,HYLV,≤ 0.25
7,KSEQ,≤ 0.25
8,QSGK,≤ 0.25
9,VYTH,≤ 0.25
10,NYYD,≤ 0.25
11,PQLV,≤ 0.25
12,RHAQ,≤ 0.25
13,KRDV,≤ 0.25
14,RFII,≤ 0.25
15,PLMM,≤ 0.25
16,AQSL,7.47
17,GILD,3.23
18,HHRK,≤ 0.25
19,SNEQ,≤ 0.25
20,DQCC,≤ 0.25
